# In article PMC4336329 (PLoS ONE, 2015):
# Out of some 310,000 compounds screened, about 2,200 (0.71%) showed an effect of 50% or more. Effects have a minus sign here. Some of the results follow.
# Molecular target: human ether-à-go-go-related gene (hERG) potassium channel (human, UniProt Q12809)
# Test: primary screen, population patch clamp on CHO cells stably expressing hERG
# Chain of human ether-à-go-go-related gene (hERG) potassium channel (Q12809 whole entry, looked up): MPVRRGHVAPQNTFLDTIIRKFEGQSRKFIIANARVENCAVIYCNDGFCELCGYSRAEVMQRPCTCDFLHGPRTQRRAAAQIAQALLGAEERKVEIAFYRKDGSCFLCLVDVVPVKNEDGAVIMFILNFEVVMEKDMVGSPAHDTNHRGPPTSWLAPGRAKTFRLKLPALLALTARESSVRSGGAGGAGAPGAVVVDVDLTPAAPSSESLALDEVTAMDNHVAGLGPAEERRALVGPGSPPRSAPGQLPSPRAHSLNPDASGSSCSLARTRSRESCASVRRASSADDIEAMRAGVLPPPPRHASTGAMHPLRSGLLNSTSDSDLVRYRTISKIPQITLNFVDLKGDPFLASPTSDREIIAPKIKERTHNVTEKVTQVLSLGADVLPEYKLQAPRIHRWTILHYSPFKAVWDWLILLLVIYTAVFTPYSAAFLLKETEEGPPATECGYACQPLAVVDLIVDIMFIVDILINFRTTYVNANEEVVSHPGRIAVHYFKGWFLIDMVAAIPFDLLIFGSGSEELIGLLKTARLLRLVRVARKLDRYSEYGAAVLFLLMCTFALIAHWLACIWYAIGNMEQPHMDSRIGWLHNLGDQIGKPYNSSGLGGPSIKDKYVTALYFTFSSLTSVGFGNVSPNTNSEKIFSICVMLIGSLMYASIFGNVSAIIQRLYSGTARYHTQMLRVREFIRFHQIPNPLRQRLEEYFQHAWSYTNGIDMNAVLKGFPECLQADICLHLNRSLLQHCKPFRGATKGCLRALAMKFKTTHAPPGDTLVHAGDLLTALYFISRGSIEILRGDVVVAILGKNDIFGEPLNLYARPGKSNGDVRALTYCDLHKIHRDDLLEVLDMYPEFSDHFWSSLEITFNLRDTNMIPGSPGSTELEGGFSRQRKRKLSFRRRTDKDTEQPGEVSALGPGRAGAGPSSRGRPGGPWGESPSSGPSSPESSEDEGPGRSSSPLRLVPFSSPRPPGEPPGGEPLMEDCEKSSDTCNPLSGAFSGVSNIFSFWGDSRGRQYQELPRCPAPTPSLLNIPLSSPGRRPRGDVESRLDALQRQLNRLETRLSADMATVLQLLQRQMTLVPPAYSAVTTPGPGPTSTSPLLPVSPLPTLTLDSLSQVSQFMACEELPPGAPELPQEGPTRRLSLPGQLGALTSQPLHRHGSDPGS
row,Structure (SMILES),"hERG current change (%, negative = inhibition) at 1uM [%]"
1,CCCn1nnnc1SCC(=O)c1ccc(NC(C)=O)cc1,11.7
2,C=CCn1c(SCc2ccccc2)nc(O)cc1=O,0.554
3,c1ccc(-c2oc3ncnc(NCCCn4ccnc4)c3c2-c2ccccc2)cc1,-11.9
4,O=C(NCc1n[nH]c(=S)n1-c1ccc(Br)cc1)c1cccs1,17.2
5,O=S(=O)(/N=C/c1c(O)ccc2ccccc12)c1ccccc1,10.6
6,CCN(CC)c1ccc(/C=N/Nc2nc3ccccc3[nH]2)c(O)c1,0.421
7,CCSc1nnc(NC(=O)Cc2ccc(OC)c(OC)c2)s1,1.76
8,COc1cc(NS(=O)(=O)c2cn(C)cn2)cc(OC)c1OC,7.59
9,O=C(Nc1cccc(C(F)(F)F)c1)c1cccc(NS(=O)(=O)c2ccc(Br)c(C(=O)O)c2)c1,11.1
10,Cc1c(N2C(=O)/C(=C\c3ccc(N(C)C)cc3)N(C)C2=S)c(=O)n(-c2ccccc2)n1C,11.9
11,COc1ccc(C(=O)NC(=S)N(CCC(C)C)c2c(N)n(Cc3ccccc3)c(=O)[nH]c2=O)cc1,-0.0572
12,Cc1cccc(C)c1NC(=O)CNC(=O)C(C)NC(C)c1ccccc1Br (centres unmarked),12.5
13,CN1/C(=C/C2CC(=O)NC2=O)C(C)(C)c2ccccc21 (centres unmarked),-2.34
14,CN(C)c1ccc([P+](=O)c2ccc(N(C)C)cc2)cc1,9.34
15,CCCCCNC(=O)CCn1c(=O)oc2ccccc21,9.63
16,Cc1c(OCC(=O)NC2CCN(Cc3ccccc3)CC2)ccc2c3c(c(=O)oc12)CCC3,-6.73
17,CCc1cc(=O)oc2cc(OC3CCCCC3=O)ccc12 (centres unmarked),13.9
18,CCOc1ccc(CN(C)Cc2cc(=O)oc3cc(C)c(Cl)cc23)cc1,7.69
19,COc1ccc(NC(=O)NC2(C(=O)N3CCCC3)CCCCC2)cc1,20
20,O=C(CCC1CCCCC1)Nc1cccnc1,12.9
21,O=C(O)c1ccc(S(=O)(=O)N2CCC3(CC2)CC(=O)c2ccccc2O3)cc1,10.5
22,CNc1nc2ccccc2n1/N=C/c1cccc(OC)c1OC,-1.07
23,COc1ccccc1C(=O)NC(=O)COC(=O)CNC(=O)c1ccc(Cl)c([N+](=O)[O-])c1,-15.6

row,Structure (SMILES),"hERG current change (%, negative = inhibition) at 1uM [%]"
1,CCOC(=O)N1CCN(C(=O)Cn2ncc3c2-c2ccccc2OC3)CC1,11.2
2,CS(=O)(=O)N1CCC(Oc2ccccc2C(=O)N2CCCCC2CO)CC1 (centres unmarked),7.76
3,CCOC(=O)CSc1nnc(-c2ccc(OC)cc2OC)o1,1.69
4,Cc1ccc(NC(=O)Nc2cccs2)cc1,0.962
5,Cn1cc(S(=O)(=O)NCCc2ccccc2)c(=O)n(C)c1=O,4
6,COc1cccc(N2C(=O)Nc3ccc(Br)cc3C2(O)C(=O)NCCCN(C)C)c1 (centres unmarked),14
7,O=C(NCCc1ccc(F)cc1)c1ccc2nccnc2c1,4.47
8,COCCN1CCN(C(=O)c2cc(COc3cc(C)ccc3C)on2)CC1,13.8
9,CC(=O)c1c(C)[nH]c(C(=O)OCc2cccc(Cl)c2)c1C,15.3
10,O=C(NNC(=O)c1csc(-c2cnccc2C(F)(F)F)n1)c1ccc(C(F)(F)F)cc1,10.6
11,Cc1ccc(S(=O)(=O)NCCC(=O)OCC(=O)Nc2cccc(S(=O)(=O)NC3=NCCCCC3)c2)cc1,4.89
12,CCSc1cc(C2C(C#N)=C(N)Oc3n[nH]c(C)c32)c(C)o1 (centres unmarked),12.5
13,CCN1CCN(c2ccc(NC(=O)c3ccco3)cc2Cl)CC1,10.8
14,CSCc1cc(N(C)c2ccccc2)nc(-c2ccccn2)n1,11.8
15,CSc1nc2ccc(NC(=O)C3=NN(c4ccccc4)C(=O)CC3)cc2s1,0.549
16,CCOC(=O)n1c(=O)n(C)c2ccc(Cl)cc21,17.5
17,CCN1CCN(CC(O)COCC2COc3ccccc3O2)CC1.Cl (centres unmarked),2.05
18,C#CCOCCOCCOCCNc1nc(N2CCN(C(=O)Cn3cc(CCC[NH+]=C(N)N)nn3)CC2)nc(N2CCN(C(=O)[C@H]([C@@H](C)CC)n3cc(CCC(=O)O)nn3)CC2)n1.[Cl-],11.2
19,COc1cc(/C(C)=N/NC(=O)Cc2c(C)[nH][nH]c2=O)ccc1O,1.11
20,O=C(CN1C(=O)C2C3C=CC(C3)C2C1=O)Nc1nc2ccccc2[nH]1 (centres unmarked),10.1
21,O=C(CN1C(=O)c2ccc([N+](=O)[O-])cc2C1=O)NCCC1=CCCCC1,13.2
22,COc1ccc(CCNc2ncnc3c2c(C)c(C)n3CCO)cc1OC,4.93
23,O=C(CCCNS(=O)(=O)c1ccccc1)NCc1ccco1,-8.91

row,Structure (SMILES),"hERG current change (%, negative = inhibition) at 1uM [%]"
1,Cc1ccc(-c2cc3nc(C)cc(C)n3n2)cc1,12.8
2,COc1ccc(C(=O)NC2(C(F)(F)F)C(=O)Nc3c2c(=O)[nH]c(=O)n3CCc2ccc(OC)c(OC)c2)cc1 (centres unmarked),1.11
3,Cc1[nH]n(-c2ccccc2)c(=O)c1N=Nc1cccc(Cl)c1,13
4,CC(=O)Nc1ccccc1NC(=O)C/C(C)=N/NC(=O)C(=O)N1CCCCC1,8.56
5,O=C(Nc1ccccn1)c1sc2cccc(F)c2c1Cl,9.82
6,CC(OC(=O)c1cccnc1)C(=O)NCc1ccc2c(c1)OCO2 (centres unmarked),0.275
7,O=C(COC(=O)c1ccccc1-c1nc2ccccc2s1)Nc1ccccc1C(F)(F)F,10.4
8,CCCNC(=O)Nc1cccc(NC(C)=O)c1,6.79
9,COc1ccc(C(OCC(O)CN2CCC(O)CC2)c2ccc(OC)cc2)cc1 (centres unmarked),-28.6
10,Cc1ccc2c(c1)NC(=O)C(CC(=O)Nc1ccc(Br)c(C)c1)O2 (centres unmarked),12.5
11,CC(C)NC(=O)CSc1nnc(-c2ccc(S(=O)(=O)N3CCCC3)cc2)n1CC1CCCO1 (centres unmarked),7.15
12,CCc1n(CC(O)COCC2CC=CCC2)c2ccccc2[n+]1C.[I-] (centres unmarked),3.15
13,CC1=C(C(=O)OCc2ccccc2)C(c2ccccc2)NC(=O)N1 (centres unmarked),19.5
14,CN(C(=O)COC(=O)c1ccc2c(=O)n3c(nc2c1)CCC3)c1ccccc1,10.2
15,CCn1c(-c2csc(C(C)C)c2)n[nH]c1=S,15.1
16,NS(=O)(=O)c1ccc(NC(=O)COC(=O)COc2cccc(C(F)(F)F)c2)cc1,28.5
17,CCc1ccc(C(=O)Nc2cc3c(cc2Cl)OCCCO3)cc1,17.8
18,COc1cc(NC(=O)Cc2ccccc2)ccc1NC(=O)c1ccccc1,14
19,O=C(CCCOc1ccccc1)N1CCN(c2ccc(F)cc2)CC1,-4.09
20,CC1(C)CC(=O)C2=C(C1)N(Cc1ccco1)C(=O)NC2(C(F)(F)F)C(F)(F)F,18.8
21,COc1ccccc1CNC(=O)CN(Cc1ccc(Cl)cc1)S(C)(=O)=O,0.297
22,Cc1cc(C)cc(NC(=S)N2CC(C)OC(C)C2)c1 (centres unmarked),17.6
23,CC1(C)C2CCC(C2)C1(C)NC(=O)CN1CCOCC1.Cl (centres unmarked),7.37

row,Structure (SMILES),"hERG current change (%, negative = inhibition) at 1uM [%]"
1,CCc1cc(SC#N)cc(CC)c1NC(=O)CCl,14.2
2,CCCCN(C(=O)CCC(=O)Nc1cc(C)on1)C(C(=O)NC1CCCC1)c1ccc(OC)cc1 (centres unmarked),5.02
3,COc1ccc(CCNC(=O)COc2ccc(S(=O)(=O)N3CCOCC3)cc2)cc1OC,2.99
4,O=C(CSCc1cccc(F)c1)N1CCN(c2ccccc2)CC1,-3.08
5,CCN1CCCC1CNC(=O)c1cc2c(-c3cccc(OC)c3)nn(C)c2s1 (centres unmarked),-8.51
6,O=C(NCCO)c1nsnc1NCCCl,5.83
7,COc1cc(OC)c(C(=O)NCC2CCCO2)cc1OC (centres unmarked),15.8
8,O=C1NCC(CN(c2ccccc2)c2ccccc2)O1 (centres unmarked),4.03
9,O=C(Nc1cccnc1)/C(N=Nc1ccc(Cl)c(C(F)(F)F)c1)=C(\O)c1ccccc1,10.6
10,CCOC(=O)N1CCN(C(=O)CSc2ccc(-c3ccc(OC)cc3)nn2)CC1,-0.399
11,Cc1ccc(S(=O)(=O)N2CCC(C(=O)Nc3nnc(C4CCCC4)s3)CC2)cc1,2.27
12,COCCN1C(=O)c2ccc(C(=O)Nc3nccs3)cc2C1=O,1.71
13,O=C(C1=COCCO1)N(Cc1nnc(-c2ccccc2Cl)o1)C1CC1,5.2
14,COc1ccc(S(=O)(=O)N2CCN(C)CC2)cn1,25.6
15,O=C(COc1cccc(-n2cnnn2)c1)N1CCOCC1,3.34
16,CSc1ccccc1C(=O)NCc1ccc(S(N)(=O)=O)cc1,3.08
17,O=C(Nc1nc2ccc(F)cc2s1)c1cccc(S(=O)(=O)N2CCc3ccccc32)c1,8.32
18,Cc1ccc(N(CC(=O)NC2CCCCC2)S(=O)(=O)c2cccs2)cc1,4.9
19,CCCCNC(=O)COC(=O)c1ccc(SC)cc1OC,22
20,Cc1cccc(C)c1NC(=S)NCCCN1CCCC1=O,7.07
